Measurements reported in the BET-seq Pho4 binding data (Le et al. 2018).
This is one part of the list. These are noisy estimates, calculated here from bound and input reads.

Biological target: T1, Pho4 (S. cerevisiae) (UniProt P07270)
T1 sequence: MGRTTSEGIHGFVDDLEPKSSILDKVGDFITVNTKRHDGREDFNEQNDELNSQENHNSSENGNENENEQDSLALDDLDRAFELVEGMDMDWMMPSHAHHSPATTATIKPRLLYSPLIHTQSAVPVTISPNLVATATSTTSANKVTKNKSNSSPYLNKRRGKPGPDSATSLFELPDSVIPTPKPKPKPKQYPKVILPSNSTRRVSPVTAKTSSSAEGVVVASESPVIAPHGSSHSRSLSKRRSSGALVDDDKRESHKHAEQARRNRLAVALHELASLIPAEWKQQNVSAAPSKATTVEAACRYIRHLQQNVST
Experiment: relative binding free energy (BET-seq); higher = weaker binding
Details: reference: library average

Sequence	relative binding free energy [kcal/mol]
CGTTTCACGTGCGCGT	0.22
TGAGACACGTGATGAT	0.19
CAATTCACGTGGGTAG	0.22
TCGGGCACGTGAGCGT	0.05
TTGTACACGTGATATA	0.13
GGGGGCACGTGTCTAT	-0.13
TTATTCACGTGGGACG	0.21
TTTTTCACGTGTCGTT	0.41
GTGTGCACGTGAATTA	0.31
AGATGCACGTGTGAGG	0.05
GGCTTCACGTGTTTAT	0.28
GAGTTCACGTGATAGT	0.3
ACAAGCACGTGGGGGC	-0.18
TGATTCACGTGAATAG	0.32
TTGTGCACGTGGTACG	-0.16
GTGCGCACGTGACGTG	-0.06
TGTTGCACGTGCTTGA	0.07
TTGTGCACGTGACGGC	0.13
GATTACACGTGAGGGC	0.36
TGGGGCACGTGAGAAC	0.15
GGGGTCACGTGTGTTA	0.2
GATTGCACGTGGTTTG	0.03
TTGGGCACGTGCTGGG	-0.1

Sequence	relative binding free energy [kcal/mol]
CGTCACACGTGCGGGG	-0.04
ATATCCACGTGATGGT	0.09
CTTTTCACGTGGGTGG	0.2
CATATCACGTGTTTAT	0.19
CGCTTCACGTGTTGTG	0.12
TAGTCCACGTGGTTGG	-0.01
CGAGGCACGTGAGTGT	0.22
GGGGCCACGTGCGGCG	-0.07
TGGTACACGTGCTTGG	0.08
AATTGCACGTGGAGTT	0
GGAAGCACGTGGGCTA	-0.13
TGTCACACGTGAGGTA	0.2
GGATGCACGTGTGATT	0.06
TAGTGCACGTGCGCTG	-0.05
GGCTTCACGTGTAGGT	0.25
GTGTGCACGTGAGCAT	0.26
TCGTCCACGTGTGAGG	0.14
GTGGGCACGTGGACGA	-0.18
GGGTGCACGTGTGCGG	0.08
TGTGGCACGTGTTTCC	0.03
GAGGTCACGTGGCATG	0.04
ACGGGCACGTGTGGGC	-0.06
TGCGGCACGTGTATGA	-0.12

Sequence	relative binding free energy [kcal/mol]
GTGTTCACGTGATCAG	0.3
TGAGGCACGTGTTTAG	-0.17
AATAACACGTGGTTTT	-0.01
TGTACCACGTGAAGGG	0.27
GATTTCACGTGGGTAA	0.21
GGTGGCACGTGCATTT	-0.02
GAAGGCACGTGGTCGT	-0.22
TCGGTCACGTGAGAGT	0.3
TGTGCCACGTGTTAAT	-0.03
CATGGCACGTGAGGGC	0.05
CTACTCACGTGGGTGT	0.08
AGACTCACGTGGGTGT	0.08
GTCGTCACGTGTGGGC	0.21
CAAGGCACGTGATTGG	-0.02
AAGGACACGTGTGTTA	-0.04
GGCTACACGTGGGCGT	0.08
TGGAGCACGTGCTAGT	-0.17
GCTGGCACGTGGATAG	-0.05
CTTAACACGTGGGGGG	-0.1
AGTTTCACGTGGTCGT	0.08
TGGTACACGTGTATAA	0.03
TTAAACACGTGAGCGG	0.35
GAGTGCACGTGATGGC	0.11

Sequence	relative binding free energy [kcal/mol]
TTCCGCACGTGTTTGT	-0.06
CGTGGCACGTGCGATG	-0.2
TTTGACACGTGGTAAT	-0.12
TGTTCCACGTGGGCGG	-0.15
GATGCCACGTGTGTTA	0.07
ACCGGCACGTGTGAGG	0.04
AAAAGCACGTGGAAGG	0.01
GATTGCACGTGGTGGA	0.02
ATCTGCACGTGTTAGG	-0.09
AGGAGCACGTGCATGG	-0.28
TCGTTCACGTGGAGAG	0.38
AAGTTCACGTGAAGGG	0.48
ATGGTCACGTGAGGCG	0.26
TAGGGCACGTGTCGGG	0
TGGCACACGTGTATTG	-0.01
ATATACACGTGAGGTT	0.18
TGATTCACGTGGGAGG	0.19
CGGGACACGTGTTGAG	0.15
TCAGTCACGTGTGCGT	0.04
GGGAGCACGTGTTGAG	0.02
TTTGGCACGTGGCTTC	-0.15
TTGTACACGTGTCGAG	0.09
TGACACACGTGGGAGG	-0.1

Sequence	relative binding free energy [kcal/mol]
CGAGCCACGTGGTGTT	0.03
TAGCGCACGTGGGTGA	-0.23
ACATGCACGTGGGGGA	-0.08
TGAATCACGTGTGGCT	0.08
TTTTACACGTGTCGTT	0.01
GGGTACACGTGTGTCT	0.14
TGCTGCACGTGCGTAT	-0.04
TGTATCACGTGTAGTG	0.11
GGGACCACGTGTGTTG	-0.04
CTATGCACGTGTTGTG	-0.09
CGGATCACGTGGTCGT	0.06
TGTCGCACGTGTCTTG	-0.11
TTTATCACGTGTTGAT	0.14
TTTTGCACGTGACACG	0.13
GCATGCACGTGTGGGT	0.03
GTGGACACGTGACTGT	0.19
TTGGCCACGTGGCTAG	0.03
TTCTACACGTGGGGGA	-0.09
TGTCGCACGTGATGGC	0.08
TGGCCCACGTGGTGTT	-0.26
GGATCCACGTGGGCGG	-0.14
TGTTACACGTGCGGAG	0.25
CGGCGCACGTGAGGGA	0.08
